From PMC6919601, “Identification of Plasmodium dipeptidyl aminopeptidase allosteric inhibitors by high throughput screening” (PLoS ONE, 2019)
Screen size: about 110,000 compounds; about 230 (0.21%) showed an effect of 50% or more. The list shows a part of the results.

molecular target: DPAP1 (Plasmodium falciparum, UniProt Q8IIJ9); assay: primary screen, percent inhibition; read by cleavage of a fluorogenic dipeptide substrate; higher = more effect of the substance; design: species or system P. falciparum D10 trophozoite lysates; single well
Sequence (Q8IIJ9 whole entry, looked up): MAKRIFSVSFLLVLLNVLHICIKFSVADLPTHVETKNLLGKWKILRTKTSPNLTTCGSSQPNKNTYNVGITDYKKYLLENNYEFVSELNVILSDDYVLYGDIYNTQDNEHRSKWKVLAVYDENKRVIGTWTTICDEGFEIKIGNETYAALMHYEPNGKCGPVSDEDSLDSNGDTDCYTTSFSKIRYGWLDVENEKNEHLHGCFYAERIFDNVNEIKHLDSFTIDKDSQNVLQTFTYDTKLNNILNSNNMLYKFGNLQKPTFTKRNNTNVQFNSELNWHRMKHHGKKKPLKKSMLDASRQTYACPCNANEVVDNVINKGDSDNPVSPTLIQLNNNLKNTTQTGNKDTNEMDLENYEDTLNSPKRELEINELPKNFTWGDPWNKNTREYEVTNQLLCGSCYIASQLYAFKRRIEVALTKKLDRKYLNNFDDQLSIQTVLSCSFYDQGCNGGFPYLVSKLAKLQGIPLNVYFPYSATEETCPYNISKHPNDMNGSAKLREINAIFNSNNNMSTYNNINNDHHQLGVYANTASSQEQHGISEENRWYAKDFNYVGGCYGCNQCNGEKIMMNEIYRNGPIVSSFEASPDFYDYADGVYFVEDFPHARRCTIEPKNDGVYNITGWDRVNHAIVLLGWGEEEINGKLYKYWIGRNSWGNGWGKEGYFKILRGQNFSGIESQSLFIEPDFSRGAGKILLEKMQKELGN
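Further: 30 min substrate incubation versus DMSO and 10 µM JCP410 controls.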

Compared with CCOC(=O)c1cc(-c2ccccc2)sc1NC(=O)c1ccc(C)cc1, CCOC(=O)c1c(-c2ccccc2)csc1NC(=O)c1cc(-c2ccc(OC)cc2)on1 is higher in “% Inhibition @ 10 uM” value: -6.6% for the first, 2.65% for the second.

Compared with COc1cc(C(=O)N2CCN(C(=O)c3ccccc3)CC2)cc(OC)c1OC, O=C(c1ccco1)N1CCN(C(=O)c2ccc(CS(=O)Cc3ccccc3Cl)o2)CC1 (stereo not shown) is lower in “% Inhibition @ 10 uM” value: 4.83% for the first, -0.434% for the second.

Going from Cc1nc2sc3c(c2c(=O)n1CC(=O)c1ccc(Cl)c(Cl)c1)CCCC3 to COc1ccc(CCNC(=O)CSc2nc(N)c3c4c(sc3n2)CCC4)cc1OC, the “% Inhibition @ 10 uM” value rises from 4.08% to 48.4%.

Compared with O=C(NCc1cccnc1)c1ccc(COc2ccccc2Br)o1, O=C(NCc1ccc2c(c1)OCO2)c1ccc(CS(=O)c2ccccc2Cl)o1 (stereo not shown) is higher in “% Inhibition @ 10 uM” value: 2.1% for the first, 5.41% for the second.

Going from C/N=c1\c(NC(=O)c2ccc(Cl)cc2)c(O)oc2ccccc12 to O=C(Nc1cccc(NS(=O)(=O)c2ccc(Cl)cc2)c1)c1ccccc1, the “% Inhibition @ 10 uM” value falls from 2.5% to -1.61%.

Going from CC(C)c1ccc(N2CC(C(=O)Nc3cccc(F)c3)CC2=O)cc1 (stereo not shown) to CCCOc1ccc(N2CC(C(=O)NC(C)C)CC2=O)cc1 (stereo not shown), the “% Inhibition @ 10 uM” value falls from 6.86% to -1.84%.

Compared with Nc1c(-c2nc(-c3ccccc3)no2)nnn1-c1cccc(C(F)(F)F)c1, O=C(Nc1ccc2nc(O)nc(-c3ccccc3)c2c1)C(F)(F)F is lower in “% Inhibition @ 10 uM” value: 0.868% for the first, -2.28% for the second.

First: O=C(c1ccco1)N1CCN(C(=O)C2CCN(c3nnc(-n4cccc4)s3)CC2)CC1
Second: O=C(Nc1c(C(=O)N2CCN(Cc3ccccc3)CC2)cnn1-c1ccccc1Cl)c1ccco1
The “% Inhibition @ 10 uM” value of the first is lower: -5.38% for the first, -1.52% for the second.

First: Cn1cc([N+](=O)[O-])c(C(=O)Nc2ccc(Cl)cc2)n1
Second: COc1ccc(C(=O)Nc2ccc(C)c(Cl)c2)cc1[N+](=O)[O-]
The “% Inhibition @ 10 uM” value of the first is lower: 1.38% for the first, 4.6% for the second.

Going from C=C(C)COc1ccc(/C=C(/NC(=O)c2ccccc2)C(=O)O)cc1OC to Cc1c(C(N)=O)c(N)c(C(=O)c2ccccc2)n1-c1ccccc1, the “% Inhibition @ 10 uM” value rises from -4.93% to -2.42%.

First: Clc1ccc(-c2noc3ncnc(N4CCN(c5ncccn5)CC4)c23)cc1
Second: Cc1[nH]c2ccccc2c1C(=O)CN1CCN(c2ccccn2)CC1
The “% Inhibition @ 10 uM” value of the first is lower: -2.41% for the first, 0.032% for the second.

Going from Cc1nn(CC(=O)NCCCc2ccccc2)c(=O)c2nn(-c3ccccc3)c(C)c12 to Cc1nn(-c2ccccc2)c(-n2cccc2)c1C(=O)NCCCN1CCCC1=O, the “% Inhibition @ 10 uM” value rises from -3.81% to -1.8%.

Compared with NC(=O)c1sc2nc3c(cc2c1N)CCC3, CN(CC(=O)NCc1cccnc1)S(=O)(=O)c1ccc2[nH]c3c(c2c1)CCCC3 is lower in “% Inhibition @ 10 uM” value: -1.07% for the first, -7.35% for the second.

Compared with CC1CCCC(NC(=O)Cn2ccc3ccccc3c2=O)C1C (stereo not shown), Cc1ccc(-c2ccc(=O)n(CC(=O)NC3CCCCC3C)n2)cc1 (stereo not shown) is lower in “% Inhibition @ 10 uM” value: 5.88% for the first, 5.35% for the second.

Going from CCc1cc(=O)oc2cc(OCc3cccc(F)c3)ccc12 to CCc1ccc2oc(-c3cccc(NC(C)=O)c3)nc2c1, the “% Inhibition @ 10 uM” value falls from 1.84% to -1.96%.

First: O=C(Nc1cccc2ccccc12)C12CC3CC(C1)CC(n1cncn1)(C3)C2
Second: Cc1nn(-c2ccccc2)c2sc(C(=O)NC3CCCCC3)cc12
The “% Inhibition @ 10 uM” value of the first is lower: -3.68% for the first, 3% for the second.

Going from CC(=O)C1=C(O)C(=O)N(Cc2ccccc2)C1c1ccccc1 (stereo not shown) to Cc1ccc(C2C(C(=O)c3ccc(OC(C)C)cc3)=C(O)C(=O)N2Cc2cccnc2)cc1 (stereo not shown), the “% Inhibition @ 10 uM” value falls from -4.32% to -9.98%.

First: Cc1ccc(S(=O)(=O)NC(C)C(=O)Nc2ccc(F)c(Cl)c2)cc1 (stereo not shown)
Second: CC(NS(=O)(=O)c1ccc(Br)cc1)c1ccccc1 (stereo not shown)
The “% Inhibition @ 10 uM” value of the first is lower: 0.709% for the first, 2.13% for the second.

Compared with COc1ccc2[nH]c3c(=O)n(CCCC(=O)N4CCc5ccccc5C4)c(=S)[nH]c3c2c1, COc1ccc(S(=O)(=O)N2CCc3ccccc3C2)c(C)c1C is lower in “% Inhibition @ 10 uM” value: 4.28% for the first, -1.33% for the second.

Compared with CCOc1ccc(S(=O)(=O)NC(C)C)cc1C(N)=O, CCNC(=O)CCc1ccc(S(=O)(=O)NCC(C)C)cc1 is lower in “% Inhibition @ 10 uM” value: 2.72% for the first, -2.83% for the second.

Going from Cc1ccc(NC(=O)CN2C(=O)c3ccccc3C2=O)c(C(=O)O)c1 to N#C/C(=C(/O)CCN1C(=O)c2ccccc2C1=O)c1nc2ccccc2[nH]1, the “% Inhibition @ 10 uM” value rises from 3.8% to 4.86%.

Going from CC(C)Cc1ccc(C(C)C(=O)Nc2ccc(/C=C/c3ccccc3)cc2)cc1 (stereo not shown) to COc1ccc(NC(=O)COc2cc(C)ccc2C(C)C)cc1, the “% Inhibition @ 10 uM” value falls from 4.54% to -5.45%.

First: CCCN(CCC)S(=O)(=O)c1ccc(NC(C)=O)cc1
Second: CN(C(=O)CCNS(=O)(=O)c1ccc2nc(O)ccc2c1)C1CCCCC1
The “% Inhibition @ 10 uM” value of the first is higher: 2.6% for the first, -4.93% for the second.

Compared with CN(c1nnc(NC(=O)NC23C[C@H]4C[C@@H](C2)C[C@@H](C3)C4)s1)C1CCCCC1, CC1=C(c2ccc(C)cc2)S(=O)(=O)N=C1NC(C)C12CC3CC(CC(C3)C1)C2 (stereo not shown) is higher in “% Inhibition @ 10 uM” value: -3.08% for the first, 2.27% for the second.

Going from COc1ccc(C2=NN(C(C)=O)C(c3ccccc3F)C2)cc1 (stereo not shown) to CCOc1ccc(C2CSc3nc4ccccc4n3C2=O)cc1 (stereo not shown), the “% Inhibition @ 10 uM” value rises from -4.7% to 0.275%.

Compared with C=C(C)Cn1c(NCCC)nc2c1c(=O)n(C)c(=O)n2C, CCOC(=O)c1c(C)c(C(=O)NC(C)CC)c(C)n1Cc1ccccc1 (stereo not shown) is lower in “% Inhibition @ 10 uM” value: 0.343% for the first, -5.27% for the second.

Compared with O=C(c1cc2nc(-c3ccco3)cc(C(F)(F)F)n2n1)N1CCN(c2ccc(F)cc2)CC1, Nc1nc2nc(-c3ccco3)cc(C(F)(F)F)n2n1 is higher in “% Inhibition @ 10 uM” value: 1.72% for the first, 2.05% for the second.

First: O=C(NCCc1ccccn1)c1nc(-c2ccc(-n3cccc3)cc2)no1
Second: NC(=O)COc1ccc(-c2noc(COc3cccc(Cl)c3)n2)cc1
The “% Inhibition @ 10 uM” value of the first is higher: -2.05% for the first, -5.11% for the second.

Compared with COc1ccccc1C1=N/C(=C\c2cccnc2)C(=O)O1, CC(=O)NC1=NC(=O)/C(=C/c2cccc(Oc3ccccc3)c2)S1 is lower in “% Inhibition @ 10 uM” value: 7.46% for the first, 6.22% for the second.

Going from CC(=O)c1cccc(Nc2nc(-c3c(C)nc4ccccn34)cs2)c1 to COC(=O)/C(C#N)=C/c1c(Oc2ccc(Cl)c(C)c2)nc2ccccn2c1=O, the “% Inhibition @ 10 uM” value falls from 1.15% to -0.828%.

First: CC(C)CC(C(=O)NCC#N)c1cccc(-c2ccc(S(=O)(=O)N3CCN(CC(F)(F)F)CC3)cc2)c1 (stereo not shown)
Second: FC(F)(F)c1cccc(N2CCN(Cc3ccc4c(c3)OCO4)CC2)c1
The “% Inhibition @ 10 uM” value of the first is lower: -4.72% for the first, 3.1% for the second.

Compared with N#CC1=C(N)N(c2nc[nH]n2)C2=C(C(=O)CCC2)C1c1ccccc1Cl (stereo not shown), O=C(COc1ccc(C2C3=C(CCCC3=O)OC3=C2C(=O)CCC3)cc1Cl)Nc1ccccc1 is higher in “% Inhibition @ 10 uM” value: -1.98% for the first, -1.44% for the second.

Compared with Cc1nnc(SCCCC(=O)c2ccc(C(C)(C)C)cc2)s1, Cc1ccc2nc(N(CCCN(C)C)C(=O)Cc3ccccc3)sc2c1 is lower in “% Inhibition @ 10 uM” value: 5.7% for the first, 0.233% for the second.

Compared with CNS(=O)(=O)c1ccc2c(O)cc(S(=O)(=O)NC)cc2c1, COc1ccc(S(=O)(=O)Nc2ccc(S(=O)(=O)N3CCCCC3)cc2)c(Cl)c1Cl is lower in “% Inhibition @ 10 uM” value: -2.56% for the first, -4.7% for the second.

First: CCN1C(=O)CS/C1=C(\C#N)S(=O)(=O)c1ccccc1
Second: O=C(Nc1nnc(-c2ccccc2)s1)c1ccc(Cl)c(S(=O)(=O)N2CCOCC2)c1
The “% Inhibition @ 10 uM” value of the first is higher: 5.44% for the first, 1.55% for the second.

Compared with OC1CCCN(C2CCN(Cc3ccccc3)CC2)C1 (stereo not shown), O=C(c1cc2c(Cl)nc3ccccc3c2s1)N1CCC(N2CCCCC2)CC1 is higher in “% Inhibition @ 10 uM” value: 2.1% for the first, 4.95% for the second.

Going from CCN(CC)CCNC(=O)Cn1cccc1C(=O)c1ccccc1 to CC(=O)Nc1ccc2[nH]c(-c3cccn3C)nc2c1, the “% Inhibition @ 10 uM” value falls from 2.76% to -8.36%.

First: C=CCOC(=O)C1=C(C)N=C2CC(C)(C)CC(O)=C2C1c1ccccc1Cl (stereo not shown)
Second: CN(C)c1ccc(C2CC(=O)NC3=C2C(=O)CC(C)(C)C3)cc1 (stereo not shown)
The “% Inhibition @ 10 uM” value of the first is higher: 5.37% for the first, -6.88% for the second.

Compared with C/N=C/c1sc2ccccc2c1O, O=C1NC(=O)C(C2c3c(O)nc(O)nc3Oc3ccc4ccccc4c32)C(=O)N1 (stereo not shown) is lower in “% Inhibition @ 10 uM” value: 23.9% for the first, -2.32% for the second.

Compared with COc1ccc(N2CCN(Cc3cc(Br)c(O)c(OC)c3)CC2)cc1, COc1cc(CN2CCCC(O)C2)cc(Br)c1O (stereo not shown) is higher in “% Inhibition @ 10 uM” value: -6.47% for the first, 3.01% for the second.

Going from COc1ccc2nc(NC(=O)c3nc(SC)ncc3Cl)sc2c1 to Cc1cc(C)cc(NC(=O)c2ccc([N+](=O)[O-])cc2Cl)c1, the “% Inhibition @ 10 uM” value falls from -1.11% to -3.04%.

First: Cc1cc(C)c(C)c(OCCCCN2CCCC2)c1
Second: COc1ccc(CN2CCN(Cc3ccco3)CC2)cc1Br
The “% Inhibition @ 10 uM” value of the first is lower: 1.35% for the first, 20.2% for the second.

First: Brc1cccc(CN2CCN(C/C=C/c3ccccc3)CC2)c1
Second: FC(F)(F)c1cccc(CN2CCOCC2)c1
The “% Inhibition @ 10 uM” value of the first is higher: 0.847% for the first, 0.217% for the second.

Going from O=C(Nc1ccccc1F)[C@@H]1C2C=CC(C2)[C@@H]1C(=O)O (stereo partly shown) to N#Cc1ccccc1S(=O)(=O)N1CCCC(c2nc(O)c3nnn(Cc4ccc(F)cc4)c3n2)C1 (stereo not shown), the “% Inhibition @ 10 uM” value rises from -8.15% to -1.31%.

Compared with COc1ccc(Br)cc1CNC(=O)C1CCCN(c2nn3c(=O)cc(C)nc3s2)C1 (stereo not shown), CCC(C)NC(=O)C1c2cc(OC)c(OC)cc2C(=O)N(C)C1c1ccc(OC)c(OC)c1 (stereo not shown) is higher in “% Inhibition @ 10 uM” value: 6.06% for the first, 6.57% for the second.

Going from Cc1cccc(S(=O)(=O)Nc2ccc(-c3cn4cccc(C)c4n3)cc2)c1 to CCOc1cc(C2c3c(oc4ccccc4c3=O)C(=O)N2c2ccc(C)cn2)ccc1O (stereo not shown), the “% Inhibition @ 10 uM” value rises from -0.545% to 3.72%.

First: Cc1noc(C(=O)N2CCN(Cc3ccc4c(c3)OCO4)CC2)c1Cl
Second: COc1ccc(CCNC(=O)Cc2ccc3c(c2CO)OCO3)cc1OC
The “% Inhibition @ 10 uM” value of the first is higher: 1.62% for the first, -3.87% for the second.

Going from O=C(NCCC1=CCCCC1)C1CCC(CNS(=O)(=O)c2cccc3nsnc23)CC1 (stereo not shown) to CC1CCCCC1Nc1nc2ccc(Cl)cc2n2cnnc12 (stereo not shown), the “% Inhibition @ 10 uM” value rises from 1.26% to 5.84%.

In the case of CCOCc1c(C)cc(C)c(/C=C(\C#N)C(=O)OCC)c1C, the “% Inhibition @ 10 uM” value is reported as 0.968%.
